# Publication PMC4242493
# The other results are listed elsewhere or left out. The list includes weakly bound sequences.
# Target: MaxL homodimer (UniProt P61244)
# Assay: universal protein-binding microarray (PBM)
# Details: PBS-based mixture, 10 nM His-tagged protein dimer, 2% milk, 200 ng/uL BSA, 50 ng/uL salmon testes DNA, 0.02% TX-100; detection with Alexa 488 anti-His …; high values mean tight binding; most listed sequences are background and not binding sites; double strand, one strand shown
# Chain of UniProt P61244 (P61244 whole entry): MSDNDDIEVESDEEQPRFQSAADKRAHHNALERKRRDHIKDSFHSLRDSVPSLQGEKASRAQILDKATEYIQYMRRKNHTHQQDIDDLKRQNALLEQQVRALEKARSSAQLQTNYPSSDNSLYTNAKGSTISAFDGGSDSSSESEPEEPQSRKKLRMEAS
row,Sequence,binding signal (normalized occupancy)
1,ACACTTTC,0.0805
2,AATCCAGT,0.0747
3,ACATGTCG,0.1
4,ACCAAAAG,0.0706
5,CCGTGGTC,0.074
6,AGGCCTAG,0.0723
7,ATCCCGAG,0.0743
8,ATACCACG,0.0991
9,AGCTTAAG,0.0724
10,CACTGTGA,0.0714
11,GCGAAAGC,0.0658
12,AATTCGCA,0.0713
13,GTATGGAA,0.0836
14,GACATCCC,0.0774
15,AGCGTTGA,0.0769
16,GTCAGAAC,0.069
17,CCAGTACG,0.0718
18,GTGTAGGA,0.0816
19,AGACCGCA,0.0699
20,ACCTCCTG,0.0781
21,GGGTGCTA,0.0789
22,GCGAGTAC,0.0724

row,Sequence,binding signal (normalized occupancy)
1,TAACCGCA,0.0826
2,TACCACAA,0.0831
3,TCAGATCA,0.0735
4,ATAGACCG,0.0706
5,ATTCACCA,0.0797
6,AGCGGCAG,0.0717
7,CGCAGATC,0.0729
8,CTACGGAG,0.0699
9,ATGTTAAC,0.0793
10,ATGAGTTA,0.0824
11,GCGTCTAA,0.0721
12,AAACTTGT,0.0701
13,AAGACGCT,0.0681
14,TGAACGAA,0.0772
15,AGCAGGCT,0.0693
16,ATTCTACA,0.0828
17,ATGGAAGG,0.0804
18,ATGACTTA,0.0813
19,GATCGTAA,0.0757
20,GAATGTTA,0.0831
21,CATCCAGA,0.0807
22,CGTCAGAG,0.0731

row,Sequence,binding signal (normalized occupancy)
1,CGAACCTC,0.073
2,AGGTCAAC,0.0749
3,CATATACC,0.0929
4,AAGTGCAA,0.0751
5,ACGTAGAT,0.0803
6,GTACGTTA,0.0781
7,TACAAGAA,0.0771
8,GGGCACCA,0.0775
9,ATGATCCC,0.0799
10,AGAGCAGG,0.0757
11,CCCGAAAA,0.0743
12,CGGCAGCC,0.0724
13,AGCCCCAA,0.0687
14,CGAGCAAA,0.0678
15,GTATAAGA,0.0826
16,GGCAGCAA,0.0707
17,CCCTATCG,0.0744
18,ATACCCTC,0.0824
19,CGCGCCAC,0.0777
20,AACGCAGG,0.0676
21,ACTAACGA,0.0744
22,CTCCTTTC,0.0775

row,Sequence,binding signal (normalized occupancy)
1,AACGATTA,0.0828
2,AGCTTACA,0.0763
3,ACCAACAT,0.0789
4,CCCCAAAA,0.0734
5,AACGAAAC,0.0737
6,GAATACAA,0.0768
7,CAGCTATA,0.0752
8,AGCTTTGA,0.0691
9,CCCCATTA,0.0782
10,AAGCACTG,0.0694
11,CCCATTCG,0.0781
12,ACCTACGC,0.0714
13,CATGGCGA,0.0859
14,ATTTAACC,0.0764
15,GCTACGTA,0.0764
16,GTGTCGAA,0.0779
17,ACACAAGG,0.084
18,TATATCCA,0.0839
19,ACGATCAG,0.0767
20,GTAGTAAC,0.0703
21,AAGATAGC,0.0693
22,CTACGCCA,0.0777

row,Sequence,binding signal (normalized occupancy)
1,ATATGACG,0.0802
2,GAACAATA,0.0756
3,ACTTCCAC,0.0788
4,GCGAGACC,0.0707
5,GGAGGGCA,0.0793
6,CCGTGTGA,0.0836
7,GAGCTTCA,0.0742
8,GGCCTATA,0.0727
9,GAGCAACA,0.0697
10,GAAGTAGA,0.0735
11,CTAGTCGC,0.0707
12,CAACTTGC,0.0748
13,CGGGGCAC,0.0781
14,CGCAGCTA,0.0652
15,AGTTCTCA,0.0673
16,CAATGCAA,0.0789
17,CTTTTGGA,0.0744
18,GATGCATA,0.0837
19,AGTACACT,0.0755
20,CGAGAGAC,0.0744
21,GTTGAGCA,0.0734
